{"source": "PubChem BioAssay AID463173", "about": "(ICCB-Longwood Screening Facility, Harvard Medical School, 2010)", "note": "The campaign covered roughly 52,000 compounds. About 1,700 (3.3%) were called active. No stated cut-off is given here; in the data, active means survival mostly below about 52% (no sharp cut-off); inactive means mostly above about 56%. The list shows a part of the results."}
{"tested_on": "Wild type", "experiment": "S. aureus survival, RN4220 and DeltatarO strains – OD600, teichoic acid synthesis inhibitors, primary screen (AID 463173)", "conditions": "S. aureus RN4220 wild type/DeltatarO growth, OD600, 18 h, active compounds read low, screened at 18.75 µg/mL (by protocol)"}
{"smiles": "Cc1cc(C)cc(NC(=O)C2CCCN(c3nnc(C)c4c(C)n(-c5ccccc5)nc34)C2)c1", "note": "(centres undefined)", "survival": "inactive: 72%"}
{"smiles": "CCOC(=O)Cn1c(=O)oc2cc(S(=O)(=O)N3CCN(c4ccc(Cl)cc4)CC3)ccc21", "survival": "inactive: 72%"}
{"smiles": "CCc1ccc(C2C(C(=O)Nc3ccccc3)=C(C)Nc3c(C(=O)Nc4ccc(C)cc4)cnn32)cc1", "note": "(centres undefined)", "survival": "active: -1%"}
{"smiles": "Cc1ccc(S(=O)(=O)NCC(c2ccc(N(C)C)cc2)N2CCCC2)cc1", "note": "(centres undefined)", "survival": "inactive: 88%"}
{"smiles": "COc1cc(OC)cc(-c2nc3n(n2)C(c2ccccc2F)C(C(=O)Nc2cccnc2)=C(C)N3)c1", "note": "(centres undefined)", "survival": "inactive: 70%"}
{"smiles": "CCc1ccc(S(=O)(=O)c2cn(C)c3cc(N4CCCCC4C)c(F)cc3c2=O)cc1", "note": "(centres undefined)", "survival": "inactive: 125%"}
{"smiles": "CCc1c(C)c2ccc3c(c2oc1=O)CN(Cc1ccccc1)CO3", "survival": "inactive: 95%"}
{"smiles": "COc1ccc(OCC(=O)Nc2nnc(S(=O)(=O)N3CCCCCC3)s2)cc1", "survival": "inactive: 85%"}
{"smiles": "CCOC(=O)C1CCN(C(c2ccccc2)c2c(O)cc(C)n(Cc3ccco3)c2=O)CC1", "note": "(centres undefined)", "survival": "inactive: 60%"}
{"smiles": "O=C(Nc1ccc(C(F)(F)F)cc1)C1CCC(CNS(=O)(=O)c2cccc3nsnc23)CC1", "note": "(centres undefined)", "survival": "inactive: 74%"}
{"smiles": "CCOc1ccc(NC(=O)Cn2c(Nc3ccc(OCC)cc3)nc3c2c(=O)[nH]c(=O)n3C)cc1", "survival": "inactive: 112%"}
{"smiles": "Cc1ccc(-n2c(CCC(=O)O)ccc2-c2cccs2)cc1C", "survival": "inactive: 64%"}
{"smiles": "O=C(c1ccc(Cl)cc1)N1CCCC(c2nc(-c3ccc(Cl)cc3)no2)C1", "note": "(centres undefined)", "survival": "inactive: 104%"}
{"smiles": "CC1CCN(CC(=O)O)CC1", "survival": "inactive: 100%"}
{"smiles": "COc1cc(C2CC(=O)Nc3c2c(=O)[nH]c2nc4ccccc4n32)ccc1O", "note": "(centres undefined)", "survival": "inactive: 142%"}
{"smiles": "CC1(C)C(=O)N(CC(=O)Nc2ccc(Cl)cc2)c2ccccc21", "survival": "inactive: 59%"}
{"smiles": "CC(C)CNC(=O)c1cccc(Cl)c1", "survival": "inactive: 113%"}
{"smiles": "CCC(C)NC(=O)c1cc2c(Cl)nc3ccc(C)cc3c2s1", "note": "(centres undefined)", "survival": "inactive: 73%"}
{"smiles": "Cc1ccc2c(c1)cc(C(=O)Nc1ccccc1C)n2C", "survival": "inactive: 86%"}
{"smiles": "CCc1nn2c(=O)cc(COC(=O)c3ccccc3NC(=O)COc3ccccc3C)nc2s1", "survival": "inactive: 59%"}
{"smiles": "COc1ccc(-c2nn3c(-c4ccc(OC)cc4)nnc3c3ccccc23)cc1", "survival": "inactive: 73%"}
{"smiles": "CCC(Cc1ccccc1)NC(=O)c1ccc2nc(N3CCC(C)CC3)sc2c1", "note": "(centres undefined)", "survival": "inactive: 70%"}
{"smiles": "Cc1ccc(NC(=O)Cn2c(=O)n(Cc3ccccc3)c(=O)c3c(C)c(C)sc32)c(C)c1", "survival": "inactive: 90%"}
{"smiles": "CC1CCCN(c2csc3ccc(F)cc3c2=O)C1", "note": "(centres undefined)", "survival": "inactive: 73%"}
{"smiles": "COc1ccc(OC(=O)c2nc(SCc3ccc(C)cc3)ncc2Cl)cc1", "survival": "inactive: 86%"}
{"smiles": "CCc1ccccc1NC(=O)C1=CC(c2ccc(OC)c(OC)c2)=NS(=O)(=O)N1C", "survival": "inactive: 85%"}
{"smiles": "Cc1cccc(C)c1OCC(=O)NCC1(N2CCOCC2)CCCCC1", "survival": "inactive: 95%"}
{"smiles": "CC1=NCC(=O)Nc2cc3c(cc21)OCCO3", "survival": "inactive: 111%"}
{"smiles": "CCCOc1ccc(C(=O)Nc2cccc(-c3nc4ccccc4[nH]3)c2)cc1", "survival": "inactive: 49%"}
{"smiles": "Cc1ccc(-c2nc(C)c(CCNC(=O)C(=O)Nc3ccc4c(c3)OCCO4)s2)cc1", "survival": "inactive: 59%"}
{"smiles": "COc1cc(N(C(=O)c2ccco2)C(C(=O)NC2CCCC2)c2ccc(C)cc2)ccc1-n1cnnn1", "note": "(centres undefined)", "survival": "inactive: 105%"}
{"smiles": "CCOc1cc(CN2CCN(CC3CC4C=CC3C4)CC2)ccc1OC", "note": "(centres undefined)", "survival": "inactive: 119%"}
{"smiles": "CN1CCN(c2ncnc3c2cnn3-c2ccccc2)CC1", "survival": "inactive: 99%"}
{"smiles": "CC1(C)O[C@H]2[C@@H](O1)[C@@H](C(=O)Nc1ccccc1O)O[C@@H]1OC(C)(C)O[C@@H]12", "survival": "inactive: 124%"}
{"smiles": "CCc1ccc(-c2nn(CC(=O)NC3CCCC3)c3c2cnc2ccc(C)cc23)cc1", "survival": "inactive: 32%"}
{"smiles": "CCOc1cc(C2C(C(=O)OC)=C(C)NC3=C2C(=O)c2ccccc23)ccc1O", "note": "(centres undefined)", "survival": "inactive: 71%"}
{"smiles": "O=C(Nc1ccc(N2CCC(N3CCCCC3)CC2)c(C(=O)O)c1)c1ccc(Br)cc1", "survival": "inactive: 75%"}
{"smiles": "CCC(CC)C(=O)Nc1cccc(-c2nc3cccnc3s2)c1C", "survival": "inactive: 110%"}
{"smiles": "COc1ccc(-n2nc3ccc(NC(=O)c4cc5ccccc5o4)cc3n2)cc1Cl", "survival": "inactive: 139%"}
{"smiles": "CCOc1ccc(CNC(=O)C2CCCN(c3nc4c(C)cc(C)cc4s3)C2)cc1", "note": "(centres undefined)", "survival": "inactive: 91%"}
{"smiles": "COc1ccccc1-c1nc(S(=O)(=O)c2ccc(Cl)cc2)c(N2CCCCCC2)o1", "survival": "inactive: 70%"}
{"smiles": "Cc1ccc(C(C)C)c(OCC(=O)Nc2c(C(=O)c3ccccc3)oc3ccccc23)c1", "survival": "inactive: 80%"}
{"smiles": "Cc1ccc(CN2C(=O)c3ccccc3C2C(=O)NC2CCCCCC2)cc1", "note": "(centres undefined)", "survival": "inactive: 82%"}
{"smiles": "Cc1ccc(NC(=O)c2sc3ccccc3c2Cl)cc1", "survival": "inactive: 76%"}
{"smiles": "CCOc1ccccc1NC(=O)c1c(C)cc(C)nc1SCC(=O)c1cccc(OC)c1", "survival": "inactive: 80%"}
{"smiles": "Cc1cc(O)c(C(c2ccc(F)cc2)N2CCCCC2)c(=O)n1Cc1ccco1", "note": "(centres undefined)", "survival": "inactive: 71%"}
{"smiles": "CCc1ccc(-n2nc(C)c3c(C(=O)Nc4cccc(C(F)(F)F)c4)cc(C)nc32)cc1", "survival": "active: -3%"}
{"smiles": "O=C(Nc1cccc(C(=O)N2CCCCC2)c1)c1nsc2ccccc12", "survival": "inactive: 65%"}
{"smiles": "Cc1cc(Nc2cccc(C(F)(F)F)c2)nc2ccc(NC(=O)c3ccc(N(C)C)cc3)cc12", "survival": "inactive: 100%"}
{"smiles": "CCOC(=O)CSc1nnc(CNc2ccc(F)cc2)o1", "survival": "inactive: 99%"}
{"smiles": "COc1ccc(CNC(=O)CCn2nc(C)c3c(C)n(-c4ccccc4)nc3c2=O)cc1OC", "survival": "active: -2%"}
{"smiles": "Cc1cccc(C)c1Nc1c(-c2ccsc2)nc2ccccn12", "survival": "inactive: 34%"}
{"smiles": "Cc1cccn2c(=O)c(/C=C(\\C#N)c3nc4ccccc4n3C)c(Oc3ccc(Br)cc3)nc12", "survival": "inactive: 68%"}
{"smiles": "Cc1ccc(NC(=O)CCCn2nc(C)c3c(C)n(-c4ccccc4)nc3c2=O)cc1Cl", "survival": "inactive: 73%"}
{"smiles": "O=C(CN1CCN(c2ccc(Cl)cc2)CC1)Nc1ccc(F)cc1F", "survival": "inactive: 100%"}
{"smiles": "CN1C(=O)c2ccccc2Sc2ccc(NC(=O)Nc3ccccc3F)cc21", "survival": "inactive: 117%"}
{"smiles": "CCOC(=O)CC1CN(C)CCN1C", "note": "(centres undefined)", "survival": "inactive: 85%"}
{"smiles": "CCOc1ccc(N(CC(=O)Nc2ccc(F)cc2F)S(=O)(=O)c2c(C)[nH]c(=O)[nH]c2=O)cc1", "survival": "inactive: 72%"}
{"smiles": "COc1ccc(CN(CCC(c2ccc3c(c2)OCO3)c2ccccc2OC)C(C)=O)cc1", "note": "(centres undefined)", "survival": "active: 8%"}
{"smiles": "CCOCCCn1c(=N)c(S(=O)(=O)c2ccc(C)cc2)cc2c(=O)n3cccc(C)c3nc21", "survival": "inactive: 77%"}
{"smiles": "COc1ccc(CNC(=O)C(=O)NCC(c2cccs2)S(=O)(=O)c2ccc(F)cc2)cc1", "note": "(centres undefined)", "survival": "inactive: 80%"}
{"smiles": "CCOC(=O)c1ccc(OCC2c3cc(OC)c(OC)cc3CCN2C(=O)Cc2ccc(F)cc2)cc1", "note": "(centres undefined)", "survival": "inactive: 54%"}
{"smiles": "CC(=O)N1CCCc2cc(S(=O)(=O)N(C)CC(=O)Nc3ccc(F)cc3Cl)ccc21", "survival": "inactive: 70%"}
{"smiles": "CCc1nn(CC(=O)NC(C)C)c(=O)c2cc3cc(F)ccc3n12", "survival": "inactive: 71%"}
{"smiles": "Cc1ccc(NC(=O)c2c(Nc3ccccc3C)sc(C(=O)c3ccccc3)c2N)cc1", "survival": "inactive: 72%"}
{"smiles": "S=C(NC12CC3CC(CC(C3)C1)C2)N1CCOCC1", "survival": "inactive: 113%"}
{"smiles": "O=C(Cn1c(SCC(=O)Nc2ccc(F)cc2)nc2ccccc21)NCc1ccc(F)cc1", "survival": "inactive: 63%"}
{"smiles": "Cc1ccc(Cl)cc1NC(=O)c1cnc(N2CCCCC2)c2ccccc12", "survival": "inactive: 90%"}
{"smiles": "CCOC(=O)C1CCN(S(=O)(=O)c2cc(Br)cc3c2N(C(=O)CC)CC3)CC1", "survival": "inactive: 64%"}
{"smiles": "CCCC(=O)NCC1(N(C)C)CCCCC1", "survival": "inactive: 89%"}
{"smiles": "CC(C)Oc1ccc(C2CC(=O)N(Nc3ccccc3)C2=O)cc1", "note": "(centres undefined)", "survival": "inactive: 95%"}
{"smiles": "N#Cc1ccc(C(=O)Nc2cc3nn(-c4ccccc4)nc3cc2Cl)c(F)c1", "survival": "inactive: 130%"}
{"smiles": "CCOc1cc2sc(N3CCC(C(=O)Nc4ccc(C)cc4C)CC3)nc2cc1Br", "survival": "inactive: 83%"}
{"smiles": "COc1ccccc1NC(=O)C(=O)NCC(c1ccc2c(c1)OCO2)N1CCN(C)CC1", "note": "(centres undefined)", "survival": "inactive: 81%"}
{"smiles": "CCN1CCN(c2ncc3c(n2)CCN(Cc2cc(F)cc(F)c2)C3)CC1", "survival": "inactive: 57%"}
{"smiles": "COc1ccc(-c2nc3scc(CCNS(=O)(=O)c4ccc(C)cc4)n3n2)cc1", "survival": "inactive: 81%"}
{"smiles": "COc1ccc(NC(=O)C(=O)NCCc2csc(-c3ccc(Cl)cc3)n2)cc1OC", "survival": "inactive: 91%"}
{"smiles": "Cc1ccc2[nH]c(=O)c(CC3CC(c4ccccc4)=NN3C(=O)CCC(=O)O)cc2c1", "note": "(centres undefined)", "survival": "inactive: 99%"}
{"smiles": "Cc1cccc(C(=O)Nc2c(-c3ccccc3)nc3cc(C)ccn23)c1", "survival": "inactive: 48%"}
{"smiles": "CC(C)N(C(=O)Cn1nnc2c(cnn2-c2ccccc2)c1=O)C(C)C", "survival": "inactive: 113%"}
{"smiles": "Cn1c(=NC(=O)c2ccc(S(=O)(=O)N3CCCc4ccccc43)cc2)sc2cc(F)ccc21", "survival": "inactive: 78%"}
{"smiles": "CC(C)OCCCn1c(=O)c2ccccc2n2c(-c3ccc(F)cc3)nnc12", "survival": "inactive: 94%"}
{"smiles": "COc1ccc(S(=O)(=O)N(CC(=O)Nc2ccccc2Br)Cc2ccccc2)cc1", "survival": "inactive: 77%"}
{"smiles": "CCOC(=O)COc1ccc([N+](=O)[O-])cc1-c1ccnc2cc(-c3ccc(Cl)cc3)nn12", "survival": "inactive: 65%"}
{"smiles": "O=C(O)C1C(c2ccccc2)C(C(=O)N2CCCCC2)C1c1ccccc1", "note": "(centres undefined)", "survival": "inactive: 103%"}
{"smiles": "COC(=O)c1ccc(NC(=O)CSc2nc(=O)[nH]c3c2CCCC3)cc1", "survival": "inactive: 71%"}
{"smiles": "CCOC(=O)c1cnc2[nH]c3ccccc3n2c1=O", "survival": "inactive: 103%"}
{"smiles": "CCc1ccc(CN(Cc2ccco2)c2cnc(S(C)(=O)=O)nc2C(=O)Nc2cccc(C)c2)cc1", "survival": "inactive: 87%"}
{"smiles": "CN(C)c1ccc(C(CNC(=O)c2ccccc2)N2CCc3ccccc32)cc1", "note": "(centres undefined)", "survival": "inactive: 82%"}
